From PubChem BioAssay AID1159614 (National Center for Advancing Translational Sciences (NCATS), 2016) come the findings set out here.

SMILES strings stand for the structures. The whole screen tested about 45,000 compounds, of which about 65 (0.1%) were called active. The call rests on the fitted dose curve; in most records, active means well fitted activation curve with a large enough effect; inconclusive means small, poorly fitted or top-dose-only effect; inactive means no such curve, though single readings can be large or run the other way. The list shows a part of the results.

Sequence of UniProt P54803 (P54803 whole entry, looked up): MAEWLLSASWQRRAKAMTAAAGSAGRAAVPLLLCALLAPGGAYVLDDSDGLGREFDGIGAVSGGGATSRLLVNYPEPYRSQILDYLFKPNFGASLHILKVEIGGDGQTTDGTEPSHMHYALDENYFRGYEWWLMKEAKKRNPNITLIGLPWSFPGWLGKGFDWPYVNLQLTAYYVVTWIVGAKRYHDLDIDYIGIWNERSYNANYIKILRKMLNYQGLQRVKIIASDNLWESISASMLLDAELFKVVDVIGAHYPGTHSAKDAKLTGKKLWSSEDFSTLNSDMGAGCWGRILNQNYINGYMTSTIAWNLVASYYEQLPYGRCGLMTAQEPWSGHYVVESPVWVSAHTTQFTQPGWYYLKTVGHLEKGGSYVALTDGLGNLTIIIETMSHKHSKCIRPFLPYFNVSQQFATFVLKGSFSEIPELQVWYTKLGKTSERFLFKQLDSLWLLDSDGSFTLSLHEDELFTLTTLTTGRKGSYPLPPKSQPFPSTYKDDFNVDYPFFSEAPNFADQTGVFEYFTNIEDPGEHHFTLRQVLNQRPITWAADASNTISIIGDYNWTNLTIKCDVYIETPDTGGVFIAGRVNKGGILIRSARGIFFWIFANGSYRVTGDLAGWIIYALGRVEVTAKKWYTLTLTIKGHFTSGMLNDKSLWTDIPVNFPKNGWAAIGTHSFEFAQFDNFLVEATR

The experiment has as its target Galactocerebrosidase (Homo sapiens) (UniProt P54803). Kind of experiment: A Novel Cell-Based Assay to Identify Small Molecules for B -Galactocerebrosidase. Further: 0% is about no effect; nearly all actives have a fitted effect of over 65% in size. Particulars: 145M-Twi-hGALC-G270D cells (Twitcher mouse brain line with human GALC G270D), HMU-beta-Gal fluorescence, 48 h; series mostly up to 57.5 µM; activation: at the top concentration. The method, boiled down:
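Fluorescence readout: HMU-β-gal cleavage by mutant GALC (0.1 mM final, citrate/phosphate pH 5.2 with 1 mg/mL taurocholate), stopped with carbonate/bicarbonate plus Triton X-100. Cells: murine Twitcher 145M-Twi expressing human G270D GALC; qHTS for activators.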
Consider `CCOc1ccc(NC(=O)c2ccc3c(=O)n4nc(Nc5ccccc5C)sc4nc3c2)cc1`, for which the “activation” value was inactive: -27.5%.
As for `CCn1c(NCc2ccc(OC)cc2)nc2ccccc21`, the figure is inactive: -9.79%; as for `CCS(=O)(=O)c1ncc(N(Cc2ccccc2)Cc2ccco2)c(C(=O)Nc2ccc(C)c(C)c2)n1`, inactive: -6.63%.
In the case of `COc1ccc(CCNC(=O)CCCCn2c(=O)c3ccccc3n(Cc3ccccc3C)c2=O)cc1OC` it was inactive: -6.06%; in that of `COCCNC(=O)CCc1c(C)nc2c(-c3ccc(F)cc3)c(C)nn2c1C`, inactive: 7.6%; in that of `COc1cc(C(CC(=O)Nc2ccc(F)cc2F)N2Cc3ccccc3C2=O)cc(OC)c1OC` (configuration not stated), inactive: -6.94%.
As for `COc1ccc(S(=O)(=O)NCCCO)cc1-c1nnc2c3ccccc3c(C)nn12`, the figure is inactive: 6.09%; as for `CCOc1ccc(NC(=O)Cn2cc(C(=O)c3ccc(CC)cc3)c(=O)c3cc(OC)c(OC)cc32)cc1`, inactive: 0.446%; as for `COc1ccc2cc3cc(C(=O)N4CCN(c5cccc(Cl)c5)CC4)sc3nc2c1`, inactive: -9.5%.
With `COc1ccc(NS(=O)(=O)c2ccc3c(c2)CCN3C(=O)CCC(=O)O)cc1Cl`, the “activation” value is inactive: -6.84%.
In the case of `Cc1cc(NC(=O)CCS(=O)(=O)c2cc(Br)cc3c2N(C(=O)C2CC2)CC3)ccc1Br` it was inactive: -6.18%; in that of `CCc1ccc(-n2c(=O)c3sc4ccccc4c3n(CC(=O)NC3CCCCC3)c2=O)cc1`, inactive: -7.69%; in that of `CC(C)CCNC(=O)CSc1nc2ccccc2nc1Cc1ccccc1`, inactive: -6.86%.
With `CCOC(=O)c1ccc2c(c1)N(C(CC)C(=O)Nc1ccccc1OC)C(=O)c1ccccc1S2` (configuration not stated), the “activation” value is inactive: -16%.
In the case of `Cc1ccc(NC(=O)Cn2nc(-c3ccncc3)ccc2=O)cc1Cl` it was inactive: -19.5%; in that of `Cn1ccc2cc3c(cc21)CCN3C(=O)Nc1cccnc1`, inactive: -4.94% [at 23.8 µM].
In the case of `O=C(Nc1c(C(=O)Nc2ccc(F)cc2)oc2ccccc12)c1cc2ccccc2o1` it was inactive: 0.0652%; in that of `COc1ccc(Cn2c(=O)c3cccnc3n(CC(=O)Nc3ccc(C)c(F)c3)c2=O)cc1`, inactive: 1.44%; in that of `COc1cc2c(cc1OC)C(COc1ccc3c(C)cc(=O)oc3c1)N(C(=O)C(C)C)CC2` (configuration not stated), inactive: -1.12%.
As for `CCOC(=O)c1nc(Nc2ccc(C(C)=O)cc2)c2ccccc2n1`, the figure is inactive: -9.16%.
Consider `Cc1cc(Oc2c(C(F)(F)F)oc3c(CN4CCC(C)CC4)c(O)ccc3c2=O)cc(C)c1Cl`, for which the “activation” value was inactive: -5.07%.
As to `Cc1cccc(-n2ccnc2SCC(=O)Nc2ccc(F)cc2F)c1C`, the “activation” value was inactive: -37.2%.
In the case of `Cc1ccc(C)c(CNC(=O)c2ccc3c(c2)nc2n3CCCCC2)c1` it was inactive: -4.67%; in that of `Cc1ccc(C)c(CN2CCC(CNC(=O)Nc3ccc(Br)cc3F)CC2)c1`, inactive: -10.8%.
In the case of `O=C(O)CP(=O)(O)O` it was inactive: -16.2%.
As for `CCc1ccc(NC(=O)Cn2nc3c4ccccc4n(Cc4ccccc4)cc-3c2=O)cc1`, the figure is inactive: -8.27%; as for `C[C@H](NC(=O)OC(C)(C)C)c1nnc(SCc2c(F)cccc2Cl)o1`, inactive: -14.2%.
In the case of `O=C1CC(c2cccc(O)c2)c2c(nc(SCc3ccccc3F)[nH]c2=O)N1` (configuration not stated), the “activation” value is inactive: 4.71%.
As for `CCOc1ccc(C(=O)N(Cc2sccc2C)C2CCS(=O)(=O)C2)cc1` (configuration not stated), the figure is inactive: 2.03%.
In the case of `CCOc1ccc(-c2cc(OC(=O)c3ccc(OC)cc3)c3c(C)oc(C)c3c(=O)c2)cc1` it was inactive: -16.3%; in that of `COCCCNC(=O)c1cc2c(=O)oc3ccc(C)cc3c2s1`, inactive: -17.8%; in that of `O=C(c1ccc(CSc2nc3ccncc3n2Cc2ccc(F)cc2)cc1)N1CCCCCC1`, inactive: -8.95%.
In the case of `Cc1ccc(-c2nc3c4ccccc4[nH]c(=O)n3n2)cc1` it was inactive: -6.8%; in that of `CCc1nc2ccc(C(=O)N3CCN(c4cccc(C)c4C)CC3)cc2nc1CC`, inactive: -17%; in that of `CCc1cccc(-n2c(C)nc3c(cnn3-c3ccc(C)c(C)c3)c2=O)c1`, inactive: -14%.
As for `CCOc1ccc(NC(=O)CSc2nc(C)c(C(=O)Nc3ccccc3)c(-c3ccc(Cl)cc3)c2C#N)cc1`, the “activation” value was inactive: -8.11%.
In the case of `CCc1ccccc1NC(=O)Nc1ccc2c(c1)N(CC)C(=O)c1ccccc1S2` it was inactive: 2.02%; in that of `CCOc1ccccc1CNC(=O)c1cc2n(n1)CCCN(Cc1ccc(C)cc1)C2=O`, inactive: -7.39%; in that of `COc1cccc(NC(=O)CSc2nc3cc(OC)c(OC)cc3c3nc(-c4ccccc4)nn23)c1`, inactive: -12.2%.
In the case of `CCn1c2ccccc2c2cc(CN3CCN(Cc4ccccc4Cl)CC3)ccc21` it was inactive: -2.86%; in that of `CC(=O)Nc1ccc(S(=O)(=O)Nc2cc(C)on2)cc1`, inactive: -11.2%.
Turning to `COc1cc(OC)c(NC2(c3ccccc3)C(=O)c3ccccc3C2=O)cc1Cl`, the “activation” value is inactive: -18.3%.
As for `O=C(Nc1ccc(OC(F)(F)F)cc1)c1nc2ccccc2nc1N1CCCCC1`, the figure is inactive: -2.19%; as for `Cc1cccc(NC(=O)Cn2nnc(C(=O)Nc3ccc(F)c(Cl)c3)c2N)c1`, inactive: -5.41%.
In the case of `COc1cc(C2C(C(=O)OCC(C)C)=C(C)N=C3SCCC(=O)N32)ccc1OCc1ccccc1` (configuration not stated) it was inactive: 4.19%.
In the case of `COc1cccc(NC(=O)CSc2nc(=O)n(Cc3ccco3)c3c2CCC3)c1` it was inactive: -8.38%; in that of `Cc1ccc(S(=O)(=O)c2cn(CC(=O)Nc3ccc4c(c3)OCO4)c3ccccc3c2=O)cc1`, inactive: -10.7%; in that of `Cc1sc2ncn(CC(=O)N3CCN(c4ccc(F)cc4)CC3)c(=O)c2c1S(=O)(=O)N1CCCCC1`, inactive: 0.478%.
For the compound `Cc1cccc2sc(N(CCCN(C)C)C(=O)c3ccc(Cl)s3)nc12`, the “activation” value was inactive: -6.2%.
In the case of `Cc1ccc(Nc2nc3c(S(=O)(=O)c4ccccc4)nnn3c3ccsc23)c(C)c1` it was inactive: 0.596%; in that of `Cc1cc(C)c2nc(N(Cc3cccnc3)C(=O)c3ccc(S(=O)(=O)N(C)C)cc3)sc2c1`, inactive: 1.48%; in that of `CCN(CC)CCCNC(=O)CSc1c2c(nc3cc(Cl)ccc13)CCCC2`, inactive: -12.7%.
As for `CC1=C(C(=O)Nc2ccc(C)cc2C)C(C(C)C)n2nc(SCc3ccccc3Cl)nc2N1` (configuration not stated), the figure is inactive: -20.7%.
In the case of `Cc1c(C(=O)Nc2cccc(C(F)(F)F)c2)sc2nc3n(c(=O)c12)CCCC3` it was inactive: -3.17%.
For the compound `COc1cccc2sc(N(Cc3cccnc3)C(=O)Cc3ccccc3)nc12`, the “activation” value was inactive: -27.1%.
Turning to `Cn1c(C(=O)NCc2ccccc2F)cc2oc3ccccc3c21`, the “activation” value was inactive: -7.89%.
As for `CCN1CCN(c2cc3c(cc2F)c(=O)c(S(=O)(=O)c2ccc(OC)cc2)cn3CC)CC1`, the figure is inactive: -17.1%; as for `COc1cccc(NC(=O)Cn2c(=O)n(-c3ccc(Cl)cc3)c(=O)c3oc4ccccc4c32)c1`, inactive: -1.46%.
In the case of `CC(C)C(=O)N1c2ncnn2C2(CCCCC2)[C@@H]2CCCC[C@@H]21` it was inactive: -10.2%; in that of `CC1=C(C(=O)Nc2cccnc2)C(c2cccc(F)c2)n2nc(SCc3ccccc3)nc2N1` (configuration not stated), inactive: -7.59%.
Take `COc1cc(C(=O)Nc2ccc3[nH]c(=O)sc3c2)cc(OC)c1OC`: the “activation” value was inactive: -6.85%.
As to `COc1cccc(C(=O)NCC(=O)OCc2cc(=O)n3c(C)csc3n2)c1`, the “activation” value is inactive: -7.23%.
On to `CC(C)Cn1c(=O)c2sccc2n2c(CCCC(=O)NCCc3ccccc3)nnc12`, for which the “activation” value was inactive: -4.01%.
On to `Cc1ccc(S(=O)(=O)N2CCN(Cc3noc(CCC(=O)N4CCCCC4)n3)CC2)c(C)c1`, for which the “activation” value was inactive: -5.93%.
Turning to `COc1ccc(C2CC(=O)N(Cc3ccc(F)cc3)c3ccccc3S2)cc1` (configuration not stated), the “activation” value is inactive: -1.46%.
On to `CCCCNc1ncnc2c1nnn2C`, for which the “activation” value was inactive: -12.8%.
In the case of `CCN1CCN(c2oc(-c3ccc(COc4ccc(C)cc4)o3)nc2C#N)CC1` it was inactive: -17.9%.
In the case of `COc1ccc2oc(-c3cccc(NC(=O)c4ccc(C#N)cc4F)c3)nc2c1` it was inactive: -20.8%; in that of `CCCCNC(=O)c1ccc2c(c1)NC(=O)C(CS(=O)(=O)Cc1cccc(C)c1)N2` (configuration not stated), inactive: -19%; in that of `COc1ccccc1CNC(=O)NCc1noc2ccc(C)cc12`, inactive: -13.9%.
As for `O=c1c2cn[nH]c2nc(SCc2cccc(Br)c2)n1-c1ccc(Cl)cc1`, the figure is inactive: -36.6%; as for `Cc1ccn2c(Nc3ccc4c(c3)OCO4)c(-c3ccc(N(C)C)cc3)nc2c1`, inactive: -15.3%.
In the case of `COc1ccc(CNC(=O)c2nc(SC(C)C)ncc2Cl)cc1`, the “activation” value was inactive: -2.79%.
As for `Cc1nc(Nc2ccc(Cl)cc2)cc(-c2ccccc2)n1`, the “activation” value was inactive: -14.4%.
As for `CCOc1ccc(NC(=O)CC2C(=O)N(c3ccccc3)C(=O)N2C2CCCCC2)cc1` (configuration not stated), the “activation” value is inactive: -26.2%.
`COCCCNC(=O)c1sc2nc3n(c(=O)c2c1C)CCC3`: the “activation” value is inactive: -16.9%.
With `CCOc1ccc(CCNC(=O)CCc2c(C)nc3c(-c4ccccc4)c(C)nn3c2C)cc1OCC`, the “activation” value was inactive: -15.2%.
For `Cc1nc2ccc(S(=O)(=O)CCC(=O)Nc3ccc(C)c(C)c3)cc2s1`, the “activation” value is inactive: -2.72%.
In the case of `CCOC(=O)c1c(-c2ccccc2)csc1NC(=O)c1cc(-c2ccc(Br)cc2)on1` it was inactive: -16.5%.
As for `COc1ccc(NC(=O)/C(C#N)=C/c2cc(C)n(-c3ccc(F)cc3)c2C)cc1`, the figure is inactive: 0.0778%.
As for `CCOC(=O)c1cccc(NC(=O)C2CCCN(S(=O)(=O)c3ccc4c(c3)oc(=O)n4C)C2)c1` (configuration not stated), the figure is inactive: -8.19%; as for `CCc1ccc(NC(=O)C(C)n2nnc3sc(-c4ccccc4)cc3c2=O)cc1` (configuration not stated), inactive: 2.9%; as for `CCOc1ccc(C2=NC(c3ccc(OC)cc3)=Nc3ccc(Cl)cc3N2)cc1`, inactive: -14.7%.
As for `C=CCC(CC=C)(CNC(=O)C(=O)Nc1cc(C)ccc1OC)c1ccc(OC)c(OC)c1`, the “activation” value is inactive: -6.86%.
In the case of `COc1ccccc1CNC(=O)CN1C(=O)COc2ccc(S(=O)(=O)N3CCC(C)CC3)cc21` it was inactive: -4.65%; in that of `O=C(Cn1cc(S(=O)(=O)N2CCCC2)c(S(=O)(=O)N2CCCC2)c1)Nc1cccc(F)c1`, inactive: -2.84%; in that of `Cc1nc2nc(SCC(=O)O)nn2c(C)c1Cc1c(F)cccc1Cl`, inactive: -11.5%.
Turning to `Cc1ccc(CN(C(=O)COc2ccc(Cl)c(C)c2)C2CCS(=O)(=O)C2)o1` (configuration not stated), the “activation” value is inactive: 10.4%.
For `Cc1csc2nc(COC(=O)c3ccccc3NC(=O)COc3ccccc3F)cc(=O)n12`, the “activation” value is inactive: -8.09%.
As for `Cc1ccc(Cl)cc1NC(=O)Cn1c(=O)n(CCCS(=O)(=O)C2CCCCC2)c(=O)c2ccccc21`, the figure is inactive: -4.79%.
Consider `CC(C)C(=O)N(Cc1ccccc1)S(=O)(=O)c1ccc2c(c1)oc(=O)n2C`, for which the “activation” value is inactive: -12.3%.
In the case of `Cc1ccc(-n2c(=O)c3c4c(sc3n(Cc3cccc(Cl)c3)c2=O)CCC4)cc1C` it was inactive: -30.3%; in that of `Cc1nc2nncn2c(NCc2ccc(Cl)cc2)c1C`, inactive: -42.6%; in that of `CCC(O)c1nc2ccccc2n1Cc1cc(C)ccc1C` (configuration not stated), inactive: -13.6%.
Regarding `Cc1c(C(C)C)c(=O)n(-c2ccccc2)n1C`, the “activation” value is inactive: -14.5%.
In the case of `Cc1oc2ccc(O)c(CN3CCCCCC3)c2c1C(=O)Nc1cccc(C(F)(F)F)c1` it was inactive: -11.7%; in that of `COc1ccc(N2CC(NC(=O)COc3cccc(C)c3)CC2=O)cc1OC` (configuration not stated), inactive: -4.24%.
